Experimental data reported in patent US20130130922A1, “ANALYSIS OF METHYLATION SITES” (Centre for Addiction and Mental Health, priority 2011, published 2013).

System: DNA
Experiment: Transalkylation activity of engineered MTases with synthetic AdoMet analogs
Settings: double-alanine mutant vs original His6 tagged variant
From the text: The other two MTases, M.HpaII and M.SssI, were subcloned as His6-tagged variants, and the purification procedures for obtaining AdoMet-free enzymes were established. In the second step, appropriate changes were produced, by site-directed mutagenesis, in the HpaII (Q104A/N335A) and SssI (Q142A/N370A) MTases, and the double-alanine mutants were obtained in a similar fashion.
The analysis was done as described above.

B1: HpaII (Q104A/N335A): His6-tagged M.HpaII C5 DNA methyltransferase (CCGG target site) double-alanine mutant Q104A/N335A (protein, UniProt P15446 1-358, looked up, variant Q104A N335A)
Type II methyltransferase …: MKDVLDDNLLEEPAAQYSLFEPESNPNLREKFTFIDLFAGIGGFRIAMQNLGGKCIFSSEWDEQAQKTYEANFGDLPYGDITLEETKAFIPEKFDILCAGFPCAAFSIAGKRGGFEDTRGTLFFDVAEIIRRHQPKAFFLENVKGLKNHDKGRTLKTILNVLREDLGYFVPEPAIVNAKNFGVPQNRERIYIVGFHKSTGVNSFSYPEPLDKIVTFADIREEKTVPTKYYLSTQYIDTLRKHKERHESKGNGFGYEIIPDDGIANAIVVGGMGRERNLVIDHRITDFTPTTNIKGEVNREGIRKMTPREWARLQGFPDSYVIPVSDASAYKQFGASVAVPAIQATGKKILEKLGNLYD
modifications: His6 tag
increase in transalkylation activity with synthetic AdoMet analogs as compared to the original His6 tagged variant: ~2 orders of magnitude
